According to publication PMC7819943, “Rice protein-binding microarrays: a tool to detect cis-acting elements near promoter regions in rice”:
The list shows a part of the results.

These sequences were tested against T1, OsWOX13 (Oryza sativa, UniProt Q5QMM3 1-267) (assay: protein-binding microarray (RPBM); PBS, 2% BSA, 51.3 ng/ul salmon testes DNA, 50 uM zinc acetate, 200 nM TF, 25 C, 1 h; high values mean tight binding). Conditions: protein: recombinant; tags: N-terminal polyhistidine and DsRed monomer fusion (pET32a); label: CyDye5-dUTP incorporated in the synthesized complementary strand; 3' TTTTT single-stranded linker to array surface; dsDNA, one strand shown.
T1 sequence: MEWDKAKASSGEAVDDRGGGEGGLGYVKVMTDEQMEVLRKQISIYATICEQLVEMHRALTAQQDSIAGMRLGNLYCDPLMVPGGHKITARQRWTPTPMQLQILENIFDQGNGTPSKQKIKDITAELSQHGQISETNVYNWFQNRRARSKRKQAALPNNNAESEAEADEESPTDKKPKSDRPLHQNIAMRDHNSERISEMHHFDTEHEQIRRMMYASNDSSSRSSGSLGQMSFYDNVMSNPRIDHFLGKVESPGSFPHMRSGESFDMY
Summary of the method: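 Transcription factors were each fused at the N-terminus to a polyhistidine tag plus DsRed and expressed in E. coli BL21-CodonPlus before Ni–NTA purification. Binding to a double-stranded custom Agilent array was carried out with 200 nM protein at 25 °C for 1 h in PBS, 2% BSA, salmon testes DNA and 50 µM zinc acetate. The binding signal is per-feature fluorescence intensity, in arbitrary units, on an Axon 4000B scanner.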

**Q.** How did the binding signal turn out when “AAAATATATGAAATTTTAATTATATTATTAAGCTACTACTCGGAGTCACCTAGTGCAG” was run?
**A.** The binding signal was 5270 fluorescence intensity (a.u.).

**Q.** How did the binding signal turn out when “ATTCATATAATTTGTATCACCTCAATAATAATTGGTATCACGGAGTCACCTAGTGCAG” was run?
**A.** Its binding signal is 14700 fluorescence intensity (a.u.).

**Q.** How did the binding signal turn out when “ACAATCAAAGAAGCTGTTAACTTCCATCAAAACTTTGATTCGGAGTCACCTAGTGCAG” was run?
**A.** Its binding signal is 4200 fluorescence intensity (a.u.).

**Q.** Which binding signal does the source give for “TTGAAATTGAAACGATGTGACAGAAAAGTTAGAAGTTTGTCGGAGTCACCTAGTGCAG” here?
**A.** Its binding signal is 24000 fluorescence intensity (a.u.).

**Q.** Which binding signal does the source give for “AAGTTGTTAGTCAAGGTGATTAGGTTGGATGATTTGACCTCGGAGTCACCTAGTGCAG” here?
**A.** The binding signal was 14200 fluorescence intensity (a.u.).

**Q.** “GGAGTTAAATTATACTCCCTCCTTCCGTTTGACACTGTTGCGGAGTCACCTAGTGCAG” was tested. Which binding signal did it give?
**A.** The binding signal was 5020 fluorescence intensity (a.u.).

**Q.** For “GTAACTGAAATTTATATGTCATTCATTGCTCTTAGCTTTTCGGAGTCACCTAGTGCAG”, which binding signal is on record?
**A.** Its binding signal is 6110 fluorescence intensity (a.u.).

**Q.** How did the binding signal turn out when “AAATGATTAGGTGAACTTTCAAGAATATATAGGGAATTTTCGGAGTCACCTAGTGCAG” was run?
**A.** The binding signal was 6990 fluorescence intensity (a.u.).

**Q.** “CTTGATGATACGTGAAACTTAAAACTTGATACATGCCGGACGGAGTCACCTAGTGCAG” was tested. Which binding signal did it give?
**A.** Its binding signal is 3580 fluorescence intensity (a.u.).

**Q.** “GTATAGATAAAATTGATATAGATGGTAAAAGTTTGAAAGTCGGAGTCACCTAGTGCAG” was tested. Which binding signal did it give?
**A.** Its binding signal is 7440 fluorescence intensity (a.u.).

**Q.** How did the binding signal turn out when “GAAATCAATGAAGCAGCTAATTTGCTGCTACTCATTATTTCGGAGTCACCTAGTGCAG” was run?
**A.** The binding signal was 3790 fluorescence intensity (a.u.).

**Q.** How did the binding signal turn out when “AGGAATAACCAATCAATCGTTAAAATTCAGGCTGTGAAAACGGAGTCACCTAGTGCAG” was run?
**A.** Its binding signal is 7020 fluorescence intensity (a.u.).

**Q.** For “TGTGATTACTGCAAGCATTTGCAATAGGAATTCAGATATACGGAGTCACCTAGTGCAG”, which binding signal is on record?
**A.** The binding signal was 14300 fluorescence intensity (a.u.).

**Q.** With “TGCTGAATTACTCATTTAGGTCTAGACGAAATACACATTGCGGAGTCACCTAGTGCAG” as the sequence, how does the binding signal read?
**A.** Its binding signal is 4700 fluorescence intensity (a.u.).

**Q.** “TTGGTTAAGGTCTAACGGGTCAATCAACAACCGTGTCTTCCGGAGTCACCTAGTGCAG” was tested. Which binding signal did it give?
**A.** The binding signal was 3480 fluorescence intensity (a.u.).

**Q.** With “TAAACAAAATGTAATTTATGTTTGTTAATATAGTACTCTCCGGAGTCACCTAGTGCAG” as the sequence, how does the binding signal read?
**A.** The binding signal was 14000 fluorescence intensity (a.u.).

**Q.** With “CAAAATTTGCCTAAACTTATCCCGCGGTCGCTCGTCCCTACGGAGTCACCTAGTGCAG” as the sequence, how does the binding signal read?
**A.** Its binding signal is 7400 fluorescence intensity (a.u.).

**Q.** “AGATAACTGAAGGTGAGCAACTAGTACTCTGTATTGTCCTCGGAGTCACCTAGTGCAG” was tested. Which binding signal did it give?
**A.** The binding signal was 9320 fluorescence intensity (a.u.).

**Q.** “TTCGGTTTTATTTTAATTGACATTTTGGACAATGATACGGCGGAGTCACCTAGTGCAG” was tested. Which binding signal did it give?
**A.** Its binding signal is 27900 fluorescence intensity (a.u.).

**Q.** Which binding signal does the source give for “AGAAAATTATTTTATAAATTATTTATAATCAAATATTTTACGGAGTCACCTAGTGCAG” here?
**A.** The binding signal was 11000 fluorescence intensity (a.u.).

**Q.** How did the binding signal turn out when “GGCCCACTGATTGCTTGCTTTCAAATGTCTAGTGGAGCAACGGAGTCACCTAGTGCAG” was run?
**A.** The binding signal was 18400 fluorescence intensity (a.u.).

**Q.** With “CTAGGATAGACGAGGAACGTGGGCTCAACCTGCTATCTGGCGGAGTCACCTAGTGCAG” as the sequence, how does the binding signal read?
**A.** The binding signal was 3670 fluorescence intensity (a.u.).

**Q.** “CCATGTGATTGACGATGCTCTTATTAACTTCTAACTTGACCGGAGTCACCTAGTGCAG” was tested. Which binding signal did it give?
**A.** The binding signal was 47000 fluorescence intensity (a.u.).

**Q.** Which binding signal does the source give for “TTCTCTAATTTCTTATCCTGATCAGATTTATAGTGAGATTCGGAGTCACCTAGTGCAG” here?
**A.** Its binding signal is 9000 fluorescence intensity (a.u.).

**Q.** For “ACGCGGCTTTGATTGCTCGCGCTTATCCCGGTGGACGTCGCGGAGTCACCTAGTGCAG”, which binding signal is on record?
**A.** The binding signal was 11200 fluorescence intensity (a.u.).

**Q.** How did the binding signal turn out when “GACATATTGTCACCGGTTTTGATTAGTTGTGGATATCTGGCGGAGTCACCTAGTGCAG” was run?
**A.** The binding signal was 6960 fluorescence intensity (a.u.).

**Q.** With “CCTTATAATTAATTTATAAATTATATAATTAAAATTAAAACGGAGTCACCTAGTGCAG” as the sequence, how does the binding signal read?
**A.** The binding signal was 13700 fluorescence intensity (a.u.).

**Q.** Which binding signal does the source give for “TCTCGACCAATCACAGCGCGTCAGCTGCGTCACCCGAGTCCGGAGTCACCTAGTGCAG” here?
**A.** Its binding signal is 9600 fluorescence intensity (a.u.).

**Q.** With “TTTGACAGAGAGAGTATACTAGATGGTACGTGTTGTCAGGCGGAGTCACCTAGTGCAG” as the sequence, how does the binding signal read?
**A.** Its binding signal is 21200 fluorescence intensity (a.u.).

**Q.** With “CACCGACAATCATTGAGACACGCACATGCAGCTACCGCTGCGGAGTCACCTAGTGCAG” as the sequence, how does the binding signal read?
**A.** Its binding signal is 6010 fluorescence intensity (a.u.).

**Q.** Which binding signal does the source give for “GATAATGGAAGATCACAAAATTCGAGAGGAAATCCATGATCGGAGTCACCTAGTGCAG” here?
**A.** Its binding signal is 6940 fluorescence intensity (a.u.).

**Q.** With “ACCAGATTGACCTTGTAGTGCTTTGCCTGAAGAGCAGTGACGGAGTCACCTAGTGCAG” as the sequence, how does the binding signal read?
**A.** The binding signal was 8270 fluorescence intensity (a.u.).

**Q.** Which binding signal does the source give for “CTACAAATTAATAATTATTCTCTAATAAGCTGTTTTGACTCGGAGTCACCTAGTGCAG” here?
**A.** The binding signal was 25100 fluorescence intensity (a.u.).

**Q.** “GGTCTCCAATTAAGTGTGAGTCAATTTCTAGCGATGATATCGGAGTCACCTAGTGCAG” was tested. Which binding signal did it give?
**A.** The binding signal was 16700 fluorescence intensity (a.u.).

**Q.** How did the binding signal turn out when “AAAATTACAATGACATGGATCCAATTGATCCTATTAAACCCGGAGTCACCTAGTGCAG” was run?
**A.** Its binding signal is 8360 fluorescence intensity (a.u.).

**Q.** Which binding signal does the source give for “AGATTCCTGTCATGTGTCCAATTAAGGCTTTGTTCATCGTCGGAGTCACCTAGTGCAG” here?
**A.** The binding signal was 4440 fluorescence intensity (a.u.).

**Q.** “GTTTGACCAATCTTCAGCTTTGATTGAGACGCTGACTTTTCGGAGTCACCTAGTGCAG” was tested. Which binding signal did it give?
**A.** The binding signal was 33000 fluorescence intensity (a.u.).

**Q.** With “CAATTTTATTTTCTGTTATCTGATTTGTGTTACCATGACGCGGAGTCACCTAGTGCAG” as the sequence, how does the binding signal read?
**A.** Its binding signal is 4250 fluorescence intensity (a.u.).

**Q.** Which binding signal does the source give for “GATCAATTATCGGCACTACCTGCTCGGCTAGAGCTTTGCCCGGAGTCACCTAGTGCAG” here?
**A.** The binding signal was 10500 fluorescence intensity (a.u.).

**Q.** Which binding signal does the source give for “CTAATAATATAGATATTTAAATTAGGTAATTAGTAAATTCCGGAGTCACCTAGTGCAG” here?
**A.** The binding signal was 9480 fluorescence intensity (a.u.).

**Q.** With “CGTTAATTACACCGCGTAACCCTGGTTAGTTATCTTTGGACGGAGTCACCTAGTGCAG” as the sequence, how does the binding signal read?
**A.** Its binding signal is 35800 fluorescence intensity (a.u.).

**Q.** How did the binding signal turn out when “AGGGGTAATTTATGTAAATATTTTGGATGGTATAATATTTCGGAGTCACCTAGTGCAG” was run?
**A.** The binding signal was 14600 fluorescence intensity (a.u.).

**Q.** With “AAAATTGACATCACTTCCAGATTGGATGTTTATAGAAATGCGGAGTCACCTAGTGCAG” as the sequence, how does the binding signal read?
**A.** Its binding signal is 5500 fluorescence intensity (a.u.).

**Q.** Which binding signal does the source give for “GGAAATTTGGGCTAAATTTCTGGGCGTGACAGACGATGGCCGGAGTCACCTAGTGCAG” here?
**A.** The binding signal was 13000 fluorescence intensity (a.u.).

**Q.** For “TATCTAATAATTGGATGGTTACAACCAAATACTTCTACATCGGAGTCACCTAGTGCAG”, which binding signal is on record?
**A.** The binding signal was 25800 fluorescence intensity (a.u.).

**Q.** How did the binding signal turn out when “ACTATTATTGTTTGTCAAGTTCGTTTATTAATCCGATGTCCGGAGTCACCTAGTGCAG” was run?
**A.** Its binding signal is 3950 fluorescence intensity (a.u.).

**Q.** Which binding signal does the source give for “TTGTGATTATTTCCTACCATTATACGAAAGTATAATAGTACGGAGTCACCTAGTGCAG” here?
**A.** The binding signal was 13000 fluorescence intensity (a.u.).

**Q.** How did the binding signal turn out when “AATCAGTTTTAAATTTAAGATTACAAATTTAAATTTTGGTCGGAGTCACCTAGTGCAG” was run?
**A.** Its binding signal is 16200 fluorescence intensity (a.u.).

**Q.** Which binding signal does the source give for “GACAGCTAATTTAGTCAGTAAGAACCAATTGCAAATCCTGCGGAGTCACCTAGTGCAG” here?
**A.** Its binding signal is 6060 fluorescence intensity (a.u.).

**Q.** How did the binding signal turn out when “TTCGGATAATTACTCAGTAGCATACCCTTCGAATGAATCACGGAGTCACCTAGTGCAG” was run?
**A.** Its binding signal is 4900 fluorescence intensity (a.u.).

**Q.** With “CCATAAATTAATCACAAGGCACCAGCCCCACCCTCTCTCCCGGAGTCACCTAGTGCAG” as the sequence, how does the binding signal read?
**A.** The binding signal was 13300 fluorescence intensity (a.u.).

**Q.** For “CAGTTTGACAGTCACAAGAATAATTGGCCATCGCATCTCGCGGAGTCACCTAGTGCAG”, which binding signal is on record?
**A.** Its binding signal is 14900 fluorescence intensity (a.u.).

**Q.** “GGAGTATATAATTAACATAAATCTGCATGGACATATAGTTCGGAGTCACCTAGTGCAG” was tested. Which binding signal did it give?
**A.** The binding signal was 7120 fluorescence intensity (a.u.).

**Q.** How did the binding signal turn out when “AGTTTGTTAAACCGTGGATTGACTCATGACTTATCTACTACGGAGTCACCTAGTGCAG” was run?
**A.** The binding signal was 9020 fluorescence intensity (a.u.).
